{
  "source": "patent US20040019187A1",
  "about": "(published 2004)",
  "molecular_target": "T1, human MHC class II DR protein (DRA*0101/DRB1*0401) purified from PRIESS cells (human, UniProt P01903; P01911 30-266, limits assumed)",
  "T1 construct": "mature; Detergent-solubilised native heterodimer purified on LB3.1 antibody beads; also called HLA-DR protein; MHCII",
  "test": "SPR (BIAcore), 500RU MHCII on chip, scFv injected",
  "data": [
    {"binder": "MS-GPC-6 scFv (scFv) [about 100 residues not shown]GYGRYSPDLWGQGTLVTVSSAGGGSGGGGSGGGGSGGGGSDIVLTQSPATLSLSPGERATLSCRASQSVSSSYLAWYQQKPGQAPRLLIYGASSRATGVPARFSGSGSGTDFTLTISSLEPEDFAVYYCQQYSNLPFTFGQGTKVEIKRTEFDYKDDDDKGAPWSHPQFEK", "values": [
      {"measurement": "Kd", "value": 4.6, "unit": "µM"},
      {"measurement": "koff", "value": 0.2, "unit": "s⁻¹"},
      {"measurement": "kon", "value": 43500, "unit": "M⁻¹ s⁻¹"}
    ]}
  ]
}
